We go through 59 molecules from PubChem BioAssay AID485344 (National Center for Advancing Translational Sciences (NCATS), 2010).

Structures are written as SMILES. Hit rate of the full screen: of about 340,000 compounds, about 6,900 (2%) were called active. Cut-off read from the data, not from the text of the source: active = inhibition above about 30%; inactive = below that, where a call was filed. The entries are a selection whose mix differs from that of the whole data set. Where no call is shown, the source filed none.

For orientation: inhibition means the drop in the measured response relative to a control, in per cent.

The assay addresses D(2) dopamine receptor (Homo sapiens) (UniProt P14416). Kind of assay: HTS Assay for Allosteric Antagonists of the Human D2 Dopamine Receptor: Primary Screen for Antagonists. Note: 0% is about no effect. The following applies: HEK293 TREx D2 cells, calcium flux, dopamine EC80; at 10 µM; stronger effect = higher value. The procedure, abridged: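 Dopamine at EC80 is the agonist stimulus; test compounds precede it by 180 s. Calcium flux read kinetically in a force-coupled, inducible HEK293 T-REx D2 cell line.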
Chain of UniProt P14416 (P14416 whole entry, looked up): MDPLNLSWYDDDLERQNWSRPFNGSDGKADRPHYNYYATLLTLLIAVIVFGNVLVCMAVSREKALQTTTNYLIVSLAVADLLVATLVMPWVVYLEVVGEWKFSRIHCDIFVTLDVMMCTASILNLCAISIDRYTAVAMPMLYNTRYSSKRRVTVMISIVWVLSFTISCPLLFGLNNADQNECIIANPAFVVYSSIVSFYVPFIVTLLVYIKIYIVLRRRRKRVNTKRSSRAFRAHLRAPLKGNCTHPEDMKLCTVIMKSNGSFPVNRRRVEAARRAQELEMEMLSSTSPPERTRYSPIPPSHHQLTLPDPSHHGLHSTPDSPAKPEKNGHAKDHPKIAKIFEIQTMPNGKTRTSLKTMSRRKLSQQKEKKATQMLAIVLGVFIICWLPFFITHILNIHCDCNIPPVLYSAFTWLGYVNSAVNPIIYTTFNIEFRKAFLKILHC
(Calcium flux is commonly read through the fluorescence of an indicator in the cells.)
As for `COc1ccc(NC(=O)Cn2nnc(C(=O)Nc3ccc(F)c(Cl)c3)c2N)cc1OC`, the inhibition was 4.03%. As for `CCC(=O)c1ccc(OCC(O)CN2CCN(c3ccccn3)CC2)cc1` (centres undefined), the inhibition was active: 73.6%. The same measure for `Cn1c(SCc2ccc(F)cc2)nc2ccc(C(=O)NCc3ccc(Cl)cc3)cc21`: -6.3%; for `COc1ccc(-c2noc(CN(C(=O)COc3cc(C)c(Br)c(C)c3)C(C)C)n2)cc1`: 11.8%.

With `CCOc1ccc(N(C(=O)CC(C)C)S(=O)(=O)c2ccc3c(c2)oc(=O)n3C)cc1`, the inhibition worked out at 10.6%. Take `COc1ccc(CCNC(=O)CCCn2c(=O)c3ccccc3n(Cc3cccc(Cl)c3)c2=O)cc1OC`: the inhibition was determined as 12.4%. For `COc1ccc(S(=O)(=O)n2nc(C)c(S(=O)(=O)N3CCC(C)CC3)c2C)cc1C`, the inhibition was -13.7%.

On to `COc1ccc(CCNS(=O)(=O)c2ccc3c(c2)CC(C)N3C(=O)C2CCC2)cc1OC` (centres undefined), for which the inhibition was 3.07%. The same measure for `CCC(=O)Nc1c(C(=O)N2CCN(c3ccc(F)cc3)CC2)oc2ccccc12`: 4.66%; for `O=C(c1ccc(NC(=O)C2(c3ccccc3)CCOCC2)cc1)N1CCOCC1`: active: 31.7%. Then `CCOC(=O)c1sc2ncn(CC(=O)Nc3ccc(N(C)C)cc3)c(=O)c2c1C`, with -3.26%; and `COc1ccccc1N1CCN(C2CCCC(C)C2)CC1` (centres undefined), with active: 33.9%. Then `O=C(Nc1nc2ccc(S(=O)(=O)N3CCCC3)cc2s1)c1cccc(F)c1`, with 3.7%. As for `COc1ccc(OC)c(CNC(=O)c2nn(-c3ccc(OC)c(Cl)c3)c(=O)c3c2c2ccccc2n3C)c1`, the inhibition is -9.18%. Then `Cc1cc(NC(=O)CSc2nnc(-c3cccs3)n2N)no1`, with active: 38.8%.

For `CCS(=O)(=O)N1CCc2cc(C(=O)Nc3ccc(OC)c(Cl)c3)ccc21`, the inhibition is -3.95%. In the case of `CCOc1ccc2nc(N3CCCC(C(=O)Nc4c(C)cccc4C)C3)sc2c1` (centres undefined), the inhibition was 3.14%. Then `Cc1ccc(Sc2c(C)nn(C(=O)COc3ccccc3Br)c2C)cc1`, with -6.52%; and `COc1cc(C(=O)NCCCc2nc3ccccc3n2CC(C)C)cc(OC)c1OC`, with -8.31%; and `O=C(C1CCN(S(=O)(=O)c2ccc(Br)s2)CC1)N1CCN(c2cccc(Cl)c2)CC1`, with -6.13%. `CCOc1ccc(CCNC(=O)c2sc3nc4n(c(=O)c3c2C)CCCC4)cc1OCC`: the inhibition was -4.97%. Then `CCOC(=O)c1ccc(NC(=O)CCn2c(=O)c3cccn3c3ccccc32)cc1`, with 10.1%. Regarding `COc1ccc(-n2c(SCC(=O)Nc3ccc(Cl)c(C)c3)nc3n[nH]c(C)c3c2=N)cc1`, the inhibition amounted to 3.3%. Then `NC(=O)c1c(NC(=O)c2nc(SCc3ccccc3F)ncc2Cl)sc2c1CCCC2`, with -6.62%. With `CCOC(=O)c1c(NC(=O)c2ccc(S(=O)(=O)N3CCC(C)CC3)cc2)sc2c1CCN(C)C2`, the inhibition was 4.29%. The same measure for `COc1ccc(C)cc1NC(=O)c1oc2ccc(S(=O)(=O)N3CCCCC3)cc2c1C`: -7.37%.

Consider `Cc1ccc(C)c(N2CCN(S(=O)(=O)c3cc(Br)cc4c3N(C(=O)C3CC3)CC4)CC2)c1`, for which the inhibition was -2.6%. The same measure for `COc1cccc(C(=O)C2CCCN(Cc3cccc(-n4cccn4)c3)C2)c1` (centres undefined): active: 31.7%; for `CCOc1ccc(C2c3[nH]c4ccccc4c3CCN2C(=O)CCc2ccccc2)cc1` (centres undefined): 9.82%; for `COC(=O)c1nc2n(n1)C(c1cccc(Cl)c1)C(C(=O)Nc1ccccc1OC)=C(C)N2` (centres undefined): -15.8%. Then `Cc1cccc(C)c1NC(=O)C(NS(=O)(=O)c1ccc2c(c1)CCC(=O)N2)c1ccccc1` (centres undefined), with 0.146%; and `Cc1c2cnn(-c3ccccc3)c(=O)c2c(C)n1CCCC(=O)Nc1cc(F)ccc1F`, with 1.48%; and `Cc1ccc(-c2nc(C)c(CCNC(=O)c3ccco3)s2)cc1`, with -8.34%.

With `O=C(CSc1nc2ccccc2nc1Cc1ccc(Cl)cc1)N1CCc2ccccc21`, the inhibition is -9.45%. With `CCN(c1cccc(C)c1)S(=O)(=O)c1nnc(NC(=O)C2CCCCC2)s1`, the inhibition worked out at 16.9%. In the case of `O=C(CSC1=Nc2ccccc2C2=NC(CC(=O)NC3CCCCC3)C(=O)N12)Nc1ccc(F)cc1` (centres undefined), the inhibition turned out to be 6.68%. Then `CCOc1ccc(NC(=O)CSc2ncc3c(n2)-c2ccc(Cl)cc2N(Cc2ccccc2)S3(=O)=O)cc1`, with -0.826%; and `COc1ccc(-c2nc3sc(CCNC(=O)c4cc(OC)c(OC)c(OC)c4)c(C)n3n2)cc1`, with 17.1%. Then `COc1ccc(N2CCN(S(=O)(=O)c3ccc4oc(=O)c5ncn(C)c5c4c3)CC2)cc1`, with 8.79%; and `CCc1ccc(C2CC(=O)c3c([nH]c(C(=O)OC4CCC(C)CC4)c3C)C2)cc1` (centres undefined), with 16.4%; and `CNC(=O)c1ccc2nc(CCc3ccccc3)oc2c1`, with -24.4%. As for `COc1ccc(S(=O)(=O)NCc2cccn2Cc2cccc(C)c2)cc1Cl`, the inhibition was 17.1%.

Turning to `COc1ccc(-c2cc(C(F)(F)F)nc(SCC(=O)N3CCCCC3)n2)cc1OC`, the inhibition is -11.4%. Then `COc1ccc(OC)c(S(=O)(=O)N2Cc3ccccc3CC2C(=O)Nc2ccc(C)cc2C)c1` (centres undefined), with 13.4%; and `COc1ccc(-c2nc(SCC(=O)Nc3ccccc3)c(-c3ccc(F)cc3)[nH]2)cc1OC`, with 10.9%. Then `CCc1cccc(C)c1NC(=O)C(CC)n1nc(C)c2c(C)n(-c3ccccc3)nc2c1=O` (centres undefined), with 3.71%; and `COCCNc1ccc(-c2nc(-c3ccncc3)no2)cc1[N+](=O)[O-]`, with 16.5%; and `Cn1c(CN2CCCC2)nc2cc(NS(=O)(=O)c3ccc(Cl)cc3)ccc21`, with active: 68.6%.

Turning to `COc1cccc(-n2c(SCC(=O)N3CCc4ccccc43)nc3c([nH]c4ccccc43)c2=O)c1`, the inhibition turned out to be 5.53%.

Turning to `COc1cc(NC(=O)CSc2nc(-c3cccs3)cc(C(F)(F)F)n2)cc(OC)c1OC`, the inhibition amounted to 9.99%.

For `O=C(Nc1ccc(F)cc1F)c1cccc2c1C(=O)N(C1CCCCC1)C2`, the inhibition came to 18.5%.

In the case of `Cc1cccc(CSc2nc3c(c(=O)[nH]2)CCC3)c1`, the inhibition was -7.76%. Regarding `Cc1ccc(CNC(=O)c2ccc(CS(=O)(=O)Cc3ccc(F)cc3)o2)cc1`, the inhibition was -24%. In the case of `CCCCc1nn2c(=O)cc(COC(=O)c3cccc(NC(=O)c4cccc(Cl)c4)c3)nc2s1`, the inhibition worked out at 14.8%. Consider `COc1ccc(CCCc2nnc(SCC(=O)Nc3cccc(C)c3)o2)cc1C`, for which the inhibition was -2.53%.

For `CNC(=S)N1N=C(c2ccc(OC)cc2)CC1c1ccccc1Cl` (centres undefined), the inhibition was active: 33.5%.

Regarding `Cc1cccc(N2CCN(S(=O)(=O)c3cn(C)c(C)n3)CC2)c1C`, the inhibition was determined as 3.26%. With `O=C(NCC1COc2ccccc2O1)c1ccc(Cl)c(S(=O)(=O)N2CCOCC2)c1` (centres undefined), the inhibition was active: 30.6%. Then `CCOc1ccccc1C(=O)Oc1c(S(=O)(=O)c2ccc(C)cc2)c(C)nn1-c1ccccc1`, with -4.38%.
